Assay results published in ChEMBL document CHEMBL4888484, “Replenishing the malaria drug discovery pipeline: Screening and hit evaluation of the MMV Hit Generation Library 1 (HGL1) against asexual blood stage Plasmodium falciparum ,using a nano luciferase reporter read-out” (2022).
The campaign covered roughly 150,000 compounds. About 540 (0.36%) showed an effect of 50% or more. The list shows a part of the results.

Test system: Plasmodium falciparum
Assay: Primary screen in NF54 nanoGlo assay, in single point, at 2uM, 72h; a lower Z score goes with more inhibition
Type: functional, Erythrocyte
Conditions: timepoint 72 hour

| Compound | % Inhibition [%] | Z score |
| --- | --- | --- |
| C#CC(NC(=O)CNC(=O)C(C)(C)C)C1CCOC1 (stereo unspecified) | -3 | 0.34 |
| COc1cccc(C(=O)Nc2nc(C(F)(F)F)c(-c3ccccn3)s2)c1 | -25 | 2.65 |
| Cc1noc(C)c1Cc1c(C(=O)N2CCC(C)(c3noc(-c4cccnc4)n3)CC2)noc1C | -5 | 0.69 |
| Cn1cnnc1CN1CCN(Cc2ccccc2)[C@H]2CS(=O)(=O)C[C@H]21 | -5 | 0.66 |
| CCn1c([C@H]2CCS(=O)(=O)C2)nnc1N1CCOC2(CCCC2)C1 | 5 | -0.84 |
| CC(=O)c1ccc(-n2c(C)cn(C[C@H](O)COc3ccc(Cl)cc3Cl)c2=O)cc1 | -11 | 1.37 |
| COCC1(CNC(=O)c2cnn(C)c2S(N)(=O)=O)CCCCC1 | -16 | 1.71 |
| O=C(c1cc(F)cc(F)c1)N1CCC(CCOc2ccccc2)CC1 | -7 | 1.28 |
| COc1cccc(CNC(=O)CN2C(=O)C(C)(C)c3cc(Cl)ccc32)c1 | -5 | 0.8 |
| CCCCn1ncc(NC(=O)N2CCOCC2C2CCCO2)c1C (stereo unspecified) | 1 | -0.17 |
| Cc1ccnc2nc(-c3nc(-c4ccc(=O)n(C)c4)no3)nn12 | 10 | -1.44 |
| N#Cc1cncc(CNS(=O)(=O)C[C@H]2CCCC(F)(F)C2)c1 | -5 | 1.03 |
| Cn1cc(-c2ncnn2-c2ccc(OC(F)(F)F)cc2)c(=O)[nH]c1=O | -9 | 1.1 |
| O=C(NC1CC1)c1ccc(S(=O)(=O)NCc2cnn3cccnc23)cc1 | 5 | -1.03 |
| COc1ccc(-c2onc(C)c2C(=O)N2CCC(Cc3ccc4c(c3)OCO4)CC2)cc1 | -7 | 1.32 |
| CC(C)c1cc(C(=O)O[C@H]2C(=O)OCC2(C)C)n[nH]1 | -12 | 1.93 |
| COC(=O)C1(CNCc2ccnn2C)CCCCC1 | -7 | 1.09 |
| O=C(NC1CCC(F)C1)c1ccsn1 (stereo unspecified) | -12 | 1.19 |
| Cc1nnc(-c2nnc(NCc3ccccc3Cl)c3ccccc23)o1 | -10 | 1.17 |
| O=S(=O)(Cc1ccccc1)N1CC[C@H](c2noc(-c3cccnc3)n2)C1 | -7 | 0.86 |
| Cn1cc(NC(=O)c2cc3ccccc3o2)ccc1=O | -4 | 0.73 |
| CC[C@H](C)Cc1nc(N)c(C#N)c(-c2ccc(N(C)C)cc2)c1C | -9 | 1.23 |
| COC(=O)c1ccc(NC(=O)Cn2nc3nc(N4CCCC4)ccn3c2=O)cc1 | -20 | 2.18 |
